# Data taken from PubChem BioAssay AID588795 (National Center for Advancing Translational Sciences (NCATS), 2011).
# “And” between values parts separate entries of the source, which are not always exact repeats. Equal entries are not always repeated. About 1,400 (0.36%) of roughly 390,000 compounds were called active. This list was built around the results that the source calls inconclusive (neither active nor inactive); the mix of calls is not that of the screen. Calls follow the shape of the dose curve; as a rule, active = well fitted inhibition curve with a large enough effect; inconclusive = small, poorly fitted or top-dose-only effect; inactive = no such curve, though single readings can be large or run the other way. Potencies beside an inconclusive call are fits to weak or partial responses and may not hold up.
# Target: Flap endonuclease 1 (Homo sapiens) (UniProt P39748)
# Assay: qHTS Assay for the Inhibitors of Human Flap endonuclease 1 (FEN1). Also: nearly all actives have a fitted effect of over 65% in size.
# Conditions: Recombinant FEN1 flap cleavage, fluorescence, 15 min; series mostly up to 114 µM; activity change, negative = inhibition: at the top concentration
# Summary of the method: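 FEN1 at 10 nM preincubated with compounds 15 min at room temperature, then flap DNA substrate added at 50 nM final. Signal read at 0 and 15 min; concentration-response fitted with four-parameter Hill equation.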
# % is scaled to controls: 0 for no effect and ±100 for the full control effect; potency is read from the fitted curve at half-maximal effect; tags tell the direction and shape of the fitted curve.
# UniProt P39748, sequence (P39748 whole entry, looked up): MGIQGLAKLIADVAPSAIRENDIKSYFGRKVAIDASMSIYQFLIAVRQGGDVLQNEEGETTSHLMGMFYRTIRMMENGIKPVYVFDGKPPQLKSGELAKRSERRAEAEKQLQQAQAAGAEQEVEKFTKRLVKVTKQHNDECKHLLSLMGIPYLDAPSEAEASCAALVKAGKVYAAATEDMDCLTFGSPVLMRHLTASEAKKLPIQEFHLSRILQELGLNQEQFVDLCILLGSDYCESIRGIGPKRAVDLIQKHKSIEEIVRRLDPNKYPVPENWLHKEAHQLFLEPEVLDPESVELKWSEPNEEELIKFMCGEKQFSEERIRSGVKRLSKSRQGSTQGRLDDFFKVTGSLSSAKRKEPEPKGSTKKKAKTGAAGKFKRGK
SMILES,"activity change, negative = inhibition",Potency
O=C(Cn1nnc(-c2ccc(CN3CCOCC3)cc2)n1)N1CCCc2ccccc21,inactive: -16.7%,–
COc1ccc2oc(C(=O)N3CCN(C/C=C/c4ccccc4)CC3)c(C)c2c1,–,"inconclusive: 44.7 µM [inhibitor, partial curve, poor fit]"
CCc1nn(-c2ccccc2)c2nc(-c3cccc(OC)c3)c3cc(OC)c(OC)cc3c12,–,"inconclusive: 100 µM [inhibitor, single point]"
O=C(CSc1ccsc1[N+](=O)[O-])Nc1cccc(F)c1,–,"inconclusive: 39.8 µM [inhibitor, partial curve]"
Cc1cccc(N2CCN(C(=O)NCc3noc4ccccc34)CC2)c1C,–,active: 89.1 µM
O=C(NC1CCCCC1)c1cc(Nc2cccc(C(F)(F)F)c2)nc2ccccc12,inactive: -3.91%,–
CCCNC(=O)c1ccc2c(=O)c(O)c(-c3ccc(Cl)c([N+](=O)[O-])c3)[nH]c2c1,–,"inconclusive: 70.8 µM [inhibitor, single point]"
Cc1onc(C(=O)Nc2sc3c(c2C#N)CCCC3)c1[N+](=O)[O-],inactive: -3.35%,–
Cc1ccc(-c2nc(C(=O)NCCCN(C)C)cc3c2[nH]c2ccccc23)cc1,–,"inconclusive: 14.1 µM [inhibitor, full curve, poor fit]"
CCOC(=O)c1[nH]c2ccc(F)cc2c1NC(=O)CN1CCN(C/C=C/c2ccccc2)CC1,–,"inconclusive: 15.8 µM [inhibitor, partial curve, poor fit]"
CCC(=O)N1CCN(c2ccc(NC(=O)c3ccc([N+](=O)[O-])o3)cc2Cl)CC1,–,"inconclusive: 20 µM [inhibitor, partial curve, poor fit]"
COc1ccc2c(C)cc(N3CCCCCC3)nc2c1,–,"inconclusive: 50.1 µM [inhibitor, partial curve, poor fit]"
O=S1(=O)CCOC[C@H](CC2CCCCC2)N1Cc1ccccc1F,–,"inconclusive: 89.1 µM [inhibitor, partial curve, poor fit]"
COc1cccc(NC(=O)CSC2=Nc3ccccc3N=C(c3ccc(F)cc3)C2)c1,–,"inconclusive: 70.8 µM [inhibitor, partial curve, poor fit]"
COc1ccc2[nH]c3c(NCCCOC(C)C)ncnc3c2c1,–,"inconclusive: 89.1 µM [inhibitor, single point]"
COc1ccc(OC)c(/C=C2\Oc3cc(OCC(=O)N4CCC[C@H]4C(=O)O)ccc3C2=O)c1,–,"inconclusive: 50.1 µM [inhibitor, partial curve]"
COc1cccc(/C=N/NC(=O)c2cc3c(OC)c(OC)ccc3[nH]2)c1OC,–,"inconclusive: 20 µM [inhibitor, full curve]"
CCOC(=O)c1cccc(NC(=O)c2cc3c(=O)n(Cc4ccccc4)ccc3nc2C)c1,–,"inconclusive: 5.62 µM [inhibitor, partial curve, poor fit]"
CCNC(=S)N(CCc1c(C)[nH]c2ccc(C)cc12)Cc1ccco1,–,"inconclusive: 89.1 µM [inhibitor, partial curve, poor fit]"
CCOC(=O)C1CCCN(c2ncnc3c2cnn3-c2ccc(Cl)cc2)C1 (stereo not given),–,"inconclusive: 89.1 µM [inhibitor, partial curve, poor fit]"

SMILES,"activity change, negative = inhibition",Potency
O=c1cc(Nc2ccc3c(c2)OCCO3)[nH]c(=O)n1Cc1ccc(F)cc1,–,"inconclusive: 0.251 µM [inhibitor, full curve]"
COc1ccc(C(=O)/C=C/c2cn(CC(O)CN3CCN(C)CC3)c3ccccc23)cc1OC (stereo not given),–,"inconclusive: 89.1 µM [inhibitor, single point]"
CCOC(=O)C1=C(C)N(CCCC(=O)O)C(=O)NC1c1ccccc1OS(=O)(=O)c1ccccc1[N+](=O)[O-] (stereo not given),inactive: -4.03%,–
CCC(=O)Nc1ccc2oc(-c3cccc(C)c3)nc2c1,inactive: -3%,–
COc1ccc(NC(=O)CN(Cc2ccccc2)S(=O)(=O)c2ccc(C)cc2)cc1Cl,inactive: -3.35%,–
Cc1c2cc[n+](CCN3CCCCC3)cc2c(C)c2c1[nH]c1ccc(O)cc12,–,active: 12.6 µM
O=C(NCCCCc1ccccc1)c1cccc(NC(=O)C2CC2)c1,–,"inconclusive: 89.1 µM [inhibitor, single point]"
CSCc1cc(N2CCOCC2)nc(SCc2ccc(Cl)cc2Cl)n1,–,"inconclusive: 35.5 µM [inhibitor, partial curve, poor fit]"
COc1cccc(/C=N/Nc2c(Cl)cncc2Cl)c1O,–,"inconclusive: 89.1 µM [inhibitor, single point]"
CCC1CCCCN1C(=O)CSc1nc2ncccc2[nH]1 (stereo not given),–,"inconclusive: 20 µM [inhibitor, full curve, poor fit]"
CCc1ccccc1NS(=O)(=O)c1ccc2[nH]cc(C(=O)N3CCCCC3)c(=O)c2c1,inactive: -0.136%,–
CN1CCN(CCCNc2nc3ccccc3c3nc(-c4ccccc4)nn23)CC1,–,"inconclusive: 28.2 µM [inhibitor, partial curve, poor fit]"
CC/C(=C\c1ccc(C(=O)OC)cc1)c1cc(OC)cc2oc3ccccc3c12,inactive: -4.75%,–
CCCCCCCCCC[n+]1ccc(/C=C/c2ccc(N(C)C)cc2)c2ccccc21,–,active: 79.4 µM
O=C(CSc1nccc2ccccc12)N1CCN(Cc2ccc3c(c2)OCO3)CC1,–,"inconclusive: 79.4 µM [inhibitor, partial curve, poor fit]"
Oc1cc(-n2cccn2)c(O)cc1-n1cccn1,–,"inconclusive: 15.8 µM [inhibitor, partial curve, poor fit]"
Cc1ccc(Cn2c(=O)c3cccnc3n(CC(=O)Nc3cccc(C(F)(F)F)c3)c2=O)cc1,–,"inactive and inconclusive: 89.1 µM [inhibitor, single point]"
CCN(CC)C(=S)SSC(=S)N(CC)CC,–,"inconclusive: 89.1 µM [inhibitor, single point]"
CC(C)(C)c1ccc(NC(=O)COC(=O)C2(C)CC2(Cl)Cl)cc1 (stereo not given),–,"inconclusive: 70.8 µM [inhibitor, partial curve, poor fit]"
CC1=Nc2ccc(C)cc2/C1=C/c1c(N)n2nc(CC(=O)N3CCOCC3)sc2nc1=O,inactive: 0.734%,–
